Experimental data reported in patent US20140088192A1, “SUBCUTANEOUSLY INFUSIBLE LEVODOPA PRODRUG COMPOSITIONS AND METHODS OF INFUSION” (SynAgile Corporation, priority 2010, published 2014).

Tests used:
[1] = Hydrolysis of LDEE salts to LD in aqueous solution, monitored by HPLC; assay type: physicochemical; settings: for % LDEE•HCl hydrolyzed: pH 3.0, about 4° C.; for percentage of LDEE.HCl hydrolyzed per hour: citrate
juvenile minipigs = assay: Subcutaneous infusion in minipigs, symptoms at infusion site; assay type: in vivo, minipig; settings: s.c. shoulder
Experimental: Citrate buffered LDEE.HCl solutions having a pH of 4.5-5.0 were infused into the shoulders of juvenile minipigs weighing about 10 kgs.
Citrate buffered LDEE.HCl solutions having a pH of 4.5-5.0 were infused into the neck/shoulder regions of juvenile minipigs weighing about 10 kgs. Two minipigs were treated. On each minipig, the solutions were simultaneously infused at two infusion sites, one on the left neck/shoulder and one on the right neck/shoulder. […] The dose was split equally between the two infusion sites, with each infusion site receiving 571 mg LDEE in 2.62 mL over 16 hours.

CCOC(=O)[C@@H](N)Cc1ccc(O)c(O)c1.Cl [LDEE.HCl, LDEE Hydrochloride]
% of the LDEE.HCl hydrolyzed daily (used for projection) ([1]; 2.7 M, pH 2.3, ambient temperature): about 0.024%
% of LDEE•HCl hydrolyzed to LD ([1]; about 2.1 M, pH 5, about 4° C., 1 day): 0.19%
% of LDEE•HCl hydrolyzed to LD ([1]; about 2.1 M, pH 5, about 4° C., 4 days): 0.72%
% of LDEE•HCl hydrolyzed to LD ([1]; about 2.1 M, pH 5, about 4° C., 8 days): 0.97%
% of LDEE•HCl hydrolyzed to LD ([1]; about 2.1 M, pH 5, about 4° C., 12 days): 1.24%
% of LDEE•HCl hydrolyzed to LD ([1]; about 2.1 M, pH 5, about 4° C., 15 days): 1.42%
% of LDEE•HCl hydrolyzed to LD ([1]; about 2.4 M, pH about 4.0, about 4° C., 0 weeks): 0.16%
% of LDEE•HCl hydrolyzed to LD ([1]; about 2.4 M, pH about 4.0, about 4° C., 3 weeks): 0.39%
% of LDEE•HCl hydrolyzed to LD ([1]; about 2.4 M, pH about 4.0, about 4° C., 7 weeks): 0.76%
% of LDEE•HCl hydrolyzed to LD ([1]; about 2.4 M, pH about 4.0, about 4° C., 11 weeks): 1.02%
% of LDEE•HCl hydrolyzed to LD ([1]; about 2.4 M, pH about 4.0, about 4° C., 15 weeks): 1.22%
% of LDEE•HCl hydrolyzed to LD ([1]; about 2.4 M, pH about 4.0, about 4° C., 21 weeks): 1.50%
LD concentration ([1]; about 2.5 M LDEE.HCl, pH 2.3, about 4° C., after 21 weeks): 11.7 mM
change of LD concentration ([1]; about 2.5 M LDEE.HCl, pH 2.3, about 4° C., over 21 weeks): 7.4 mM
LD concentration ([1]; about 2.5 M LDEE.HCl, pH 2.3, about 4° C., start): 4.3 mM
% hydrolyzed per day ([1]; about 2.5 M, acetate buffered pH 4.60, about 23±2° C.): 0.82%
% of the LDEE.HCl converted daily to LD ([1]; about 2.5 M, pH 0.12, 23° C.): about 0.71%
% of the LDEE.HCl hydrolyzed ([1]; about 2.5 M, pH 0.12, 6 days at 23° C.): about 4.3%
LD concentration as % of that of the LDEE.HCl ([1]; about 2.5 M, pH 2.3, about 4° C., after 21 weeks): 0.47%
LD concentration as % of that of the LDEE.HCl ([1]; about 2.5 M, pH 2.3, about 4° C., start): 0.17%
% LDEE•HCl hydrolyzed ([1]; about 2.5 M, 0 weeks): 0.15%
% LDEE•HCl hydrolyzed ([1]; about 2.5 M, 3 weeks): 0.23%
% LDEE•HCl hydrolyzed ([1]; about 2.5 M, 7 weeks): 0.31%
% LDEE•HCl hydrolyzed ([1]; about 2.5 M, 11 weeks): 0.37%
% LDEE•HCl hydrolyzed ([1]; about 2.5 M, 15 weeks): 0.43%
% LDEE•HCl hydrolyzed ([1]; about 2.5 M, 19 weeks): 0.49%
% LDEE•HCl hydrolyzed ([1]; about 2.5 M, 21 weeks): 0.51%
% of the LDEE hydrolyzed to LD ([1]; about 2.6 M LDEE.HCl, pH 3.3 citrate, 6 days at 23±2° C.): 1.8%
LD detected by HPLC-UV-vis assay ([1]; about 2.6 M, pH 2.1, 24 h at 23±2° C.): did not detect LD
% of the LDEE.HCl hydrolyzed daily ([1]; about 2.6 M, pH 3.3 citrate, 23±2° C.): about 0.30%
% of the LDEE.HCl hydrolyzed daily to LD ([1]; about 2.7 M, pH 2.3, 22.6±1.0° C., 8 day period following Day 1): about 0.026%
% of LDEE•HCl hydrolyzed to LD ([1]; about 2.7 M, pH 2.3, 22.6±1.0° C., elapsed 1 day): 0.18%
% of LDEE•HCl hydrolyzed to LD ([1]; about 2.7 M, pH 2.3, 22.6±1.0° C., elapsed 2 days): 0.18%
% of LDEE•HCl hydrolyzed to LD ([1]; about 2.7 M, pH 2.3, 22.6±1.0° C., elapsed 5 days): 0.27%
% of LDEE•HCl hydrolyzed to LD ([1]; about 2.7 M, pH 2.3, 22.6±1.0° C., elapsed 6 days): 0.32%
% of LDEE•HCl hydrolyzed to LD ([1]; about 2.7 M, pH 2.3, 22.6±1.0° C., elapsed 7 days): 0.32%
% of LDEE•HCl hydrolyzed to LD ([1]; about 2.7 M, pH 2.3, 22.6±1.0° C., elapsed 8 days): 0.36%
% of LDEE•HCl hydrolyzed to LD ([1]; about 2.7 M, pH 2.3, 22.6±1.0° C., elapsed 9 days): 0.38%
percentage of LDEE.HCl hydrolyzed per hour ([1]; pH 2.3, 4° C., about 2.5 M): 0.0000 % per hour
percentage of LDEE.HCl hydrolyzed per hour ([1]; pH 2.3, 37° C., about 2.5 M): 0.004 % per hour
% of the LDEE.HCl hydrolyzed per hour ([1]; pH 2.3, 55° C.): 1.9%
percentage of LDEE.HCl hydrolyzed per hour ([1]; pH 2.3, 55° C., about 2.5 M): 0.019 % per hour
percentage of LDEE.HCl hydrolyzed per hour ([1]; pH 3.0, 4° C., about 2.5 M): 0.0001 % per hour
percentage of LDEE.HCl hydrolyzed per hour ([1]; pH 3.0, 37° C., about 2.5 M): 0.003 % per hour
percentage of LDEE.HCl hydrolyzed per hour ([1]; pH 3.0, 55° C., about 2.5 M): 0.02 % per hour
percentage of LDEE.HCl hydrolyzed per hour ([1]; pH 4.0, 4° C., about 2.5 M): 0.0005 % per hour
percentage of LDEE.HCl hydrolyzed per hour ([1]; pH 4.0, 37° C., about 2.5 M): 0.014 % per hour
percentage of LDEE.HCl hydrolyzed per hour ([1]; pH 4.0, 55° C., about 2.5 M): 0.027 % per hour
daily hydrolysis rate as fraction of that of the acetate salt of Example 6 ([1]; pH 4.6-4.7, about 23° C.): about ⅕
percentage of LDEE.HCl hydrolyzed per hour ([1]; pH 5.0, 4° C., about 2.1 M): 0.0029 % per hour
Symptoms at end of infusion (juvenile minipigs; Mini Pig A, Exper. # 1, 608 mg/mL, total dose 163 mg (LDEE based), 16 hrs, pH 4.5-5.0): None
Symptoms at end of infusion (juvenile minipigs; Mini Pig A, Exper. # 2, 214 mg/mL, total dose 489 mg, 16 hrs): none
Symptoms at end of infusion (juvenile minipigs; Mini Pig A, Exper. # 3, 214 mg/mL, total dose 1142 mg, 16 hrs): diffuse soft
Symptoms at end of infusion (juvenile minipigs; Mini Pig A, Exper. # 4, 108 mg/mL, total dose 1142 mg, 16.5 hrs): none
Symptoms at end of infusion (juvenile minipigs; Mini Pig B, Exper. # 1, 608 mg/mL, total dose 163 mg (LDEE based), 16 hrs, pH 4.5-5.0): small hard
Symptoms at end of infusion (juvenile minipigs; Mini Pig B, Exper. # 2, 214 mg/mL, total dose 489 mg, 16 hrs): none
Symptoms at end of infusion (juvenile minipigs; Mini Pig B, Exper. # 3, 214 mg/mL, total dose 1142 mg, 16 hrs): diffuse soft
Symptoms at end of infusion (juvenile minipigs; Mini Pig B, Exper. # 4, 108 mg/mL, total dose 1142 mg, 16.5 hrs): none
